Our source for the relative cell viability values is the supplement of paper PMC10670038.

The structures appear in SMILES notation. Structures can show the parent of a compound that is named as a salt. ± gives the standard deviation of the averaged measurements. In all, about 2,000 compounds were measured (“relative cell viability vs DMSO, compound + 0.2 uM CuET”: median about 1, lowest 2% from about 0.25 on). The list shows a part of the results.

For the assay, the system named is TE10. The assay can be described thus: relative cell viability vs DMSO, compound + 0.2 uM CuET (fraction); TE10 is an esophageal squamous carcinoma line; higher = less cytotoxic. Particulars: 2 µM; co-treatment: CuET (bis(diethyldithiocarbamate)copper) 0.2 uM; 48 h. As for the experimental part:
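TE10 ESCC cells (1,000/well, 384-well plates) were treated with Selleck bioactive library compounds at 2 uM combined with 0.2 uM CuET (copper diethyldithiocarbamate) for 48 h. Viability was read by CellTiter-Glo and expressed relative to DMSO wells. Two technical replicates (A, B).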
Regarding `O=C(O)CNC(=O)c1c(O)c2ccccc2n(Cc2ccccc2)c1=O`, the relative cell viability was 1.07 ± 0.069.

Turning to `C[N+](C)(C)CCCCCCCCCC[N+](C)(C)C` [Decamethonium Bromide], the relative cell viability amounted to 0.999 ± 0.037.

Regarding `CCNC(=O)C[C@@H]1N=C(c2ccc(Cl)cc2)c2cc(OC)ccc2-n2c(C)nnc21`, the relative cell viability is 0.844 ± 0.12.

With `CC(C)=CCC[C@]1(C)C=Cc2c(O)c3c(c(CC=C(C)C)c2O1)O[C@]12C(=C[C@@H]4C[C@H]1C(C)(C)O[C@@]2(C/C=C(/C)C(=O)O)C4=O)C3=O` [Gambogic Acid], the relative cell viability is 0.2853 ± 0.00092.

As to `CN1c2ccccc2C(NCCCCCCC(=O)O)c2ccc(Cl)cc2S1(=O)=O` (stereo not given) [Tianeptine sodium], the relative cell viability is 1.21 ± 0.12.

As to `C[C@H]1CCC/C=C/[C@@H]2C[C@H](O)C[C@H]2[C@H](O)/C=C/C(=O)O1` [Brefeldin A], the relative cell viability was determined as 0.437 ± 0.028.

Take `CC1=C(O)C(=O)C=C2C1=CC=C1[C@@]2(C)CC[C@@]2(C)[C@@H]3C[C@](C)(C(=O)O)CC[C@]3(C)CC[C@]12C` [Celastrol]: the relative cell viability was determined as 0.154 ± 0.0064.

Regarding `COc1cc(-n2c(=S)[nH]c3ccccc3c2=O)c(Cl)cc1Cl` [Mdivi-1], the relative cell viability worked out at 1.28 ± 0.031.

Consider `CCCN1C[C@H](CSC)C[C@@H]2c3cccc4[nH]cc(c34)C[C@H]21` [Pergolide mesylate], for which the relative cell viability stood at 1.36 ± 0.33.

As for `CC(=O)Nc1ccc(Cc2ccc(NC(C)=O)cc2)cc1`, the relative cell viability is 1.23 ± 0.095.

In the case of `COc1ccc(C(=O)N2CCCC2=O)cc1` [Aniracetam], the relative cell viability worked out at 1.18 ± 0.079.

For `O=C(O[C@H]1C[C@H]2CC[C@@H](C1)[N+]21CCCC1)C(O)(c1ccccc1)c1ccccc1` [Trospium chloride], the relative cell viability worked out at 1.14 ± 0.085.

Regarding `O=C(O)CCCc1ccc(N(CCCl)CCCl)cc1` [Chloroambucil], the relative cell viability came to 1.2 ± 0.13.

With `CC[C@@H](C(N)=O)N1CCCC1=O` [Levetiracetam], the relative cell viability is 1.18 ± 0.032.

For `CN(C)Cc1c[nH]c2ccccc12` [Gramine], the relative cell viability worked out at 1.257 ± 0.0067.

Regarding `NC(=O)CN1CC(O)CC1=O` (stereo not given) [Oxiracetam], the relative cell viability stood at 1.14 ± 0.037.

With `CN1CCC(c2c[nH]c3ccc(O)cc23)CC1`, the relative cell viability amounted to 1.23 ± 0.086.

Take `COc1cc([C@@H]2c3cc4c(cc3[C@H](O)[C@H]3COC(=O)[C@@H]23)OCO4)cc(OC)c1OC` [Picropodophyllin (PPP)]: the relative cell viability was determined as 0.811 ± 0.025.

In the case of `C/C(=C\c1csc(C)n1)[C@@H]1C[C@@H]2O[C@]2(C)CCC[C@H](C)[C@H](O)[C@@H](C)C(=O)C(C)(C)[C@@H](O)CC(=O)O1` [Epothilone B (EPO906, Patupilone)], the relative cell viability was 1.05 ± 0.027.

Consider `C=CC[C@]1(O)CC[C@H]2[C@@H]3CCC4=CC(=O)CCC4=C3C=C[C@@]21C` [Altrenogest], for which the relative cell viability is 1.01 ± 0.15.

As to `C=C[C@H]1CN2CC[C@H]1C[C@H]2[C@H](O)c1ccnc2ccccc12` [Cinchonidine], the relative cell viability amounted to 1.03 ± 0.057.

Take `Cc1cccc(C(C)c2c[nH]cn2)c1C` (stereo not given) [Medetomidine HCl]: the relative cell viability came to 1.11 ± 0.056.

Regarding `O=S(=O)(CC1CS1)c1ccc(Oc2ccccc2)cc1` (stereo not given), the relative cell viability worked out at 0.936 ± 0.07.

For the molecule `O=c1[nH]c2ccccc2n1CCCN1CCC(n2c(=O)[nH]c3cc(Cl)ccc32)CC1` [Domperidone], the relative cell viability worked out at 1.03 ± 0.12.

On to `c1cc2c(cc1[C@H]1OC[C@H]3[C@@H]1CO[C@@H]3c1ccc3c(c1)OCO3)OCO2` [Sesamin], for which the relative cell viability stood at 1.09 ± 0.084.

Take `Cc1cc(O)ccc1Cl` [Chlorocresol]: the relative cell viability was 1.152 ± 0.0014.

`Fc1cc(F)c2c(c1)[C@H]1C=CC[C@H]1C(c1cccnc1)N2` (stereo not given in full) [Golgicide A]: the relative cell viability stood at 0.95 ± 0.2.

In the case of `CN1[C@@H]2CC[C@H]1C[C@@H](OC(=O)[C@H](CO)c1ccccc1)C2` [Hyoscyamine], the relative cell viability stood at 1.2 ± 0.12.

With `Nc1nc(N)nc(NC2CC2)n1` [Cyromazine], the relative cell viability was determined as 1.11 ± 0.036.

In the case of `NCCc1ccc(S(=O)(=O)F)cc1`, the relative cell viability is 1.16 ± 0.088.

As for `CCC(COC(=O)c1cc(OC)c(OC)c(OC)c1)(c1ccccc1)N(C)C` (stereo not given) [Trimebutine], the relative cell viability is 0.988 ± 0.092.

Regarding `C/C=C(\C)C(=O)N[C@@H](c1ccccc1)[C@@H](O)C(=O)O[C@H]1C[C@@]2(O)[C@@H](OC(=O)c3ccccc3)[C@@H]3[C@]4(OC(C)=O)CO[C@@H]4C[C@H](O)[C@@]3(C)C(=O)[C@H](OC(C)=O)C(=C1C)C2(C)C` [Cephalomannine], the relative cell viability was 0.681 ± 0.016.

With `NCCc1c[nH]c2ccc(O)cc12` [Serotonin HCl], the relative cell viability was 1.11 ± 0.063.

On to `COc1ccc2c(c1)/C(=C/c1cnc[nH]1)C(=O)N2`, for which the relative cell viability worked out at 1.12 ± 0.25.

With `COc1ccc(C[C@H]2NC[C@H](O)[C@H]2OC(C)=O)cc1` [Anisomycin], the relative cell viability was 0.498 ± 0.052.

Consider `C[C@@H]1CC[C@H]2[C@@H](C)C(=O)O[C@@H]3O[C@@]4(C)CC[C@@H]1[C@]32OO4` [Artemisinin], for which the relative cell viability amounted to 1.08 ± 0.11.

On to `CCC1(c2cccc(O)c2)CCCCN(C)C1` (stereo not given) [Meptazinol HCl], for which the relative cell viability is 0.869 ± 0.24.

On to `Cc1c(Cl)c(OCC(=O)N2CCN(C)CC2)nc2sc(C(=O)NC3CC3)c(N)c12`, for which the relative cell viability stood at 1.07 ± 0.013.

Regarding `Cc1cccc([C@H](C)c2c[nH]cn2)c1C` [Dexmedetomidine HCl (Precedex)], the relative cell viability is 1 ± 0.16.

Turning to `Cc1cccc([C@H](C)c2c[nH]cn2)c1C` [Dexmedetomidine], the relative cell viability turned out to be 1.13 ± 0.0081.

`C#C[C@]1(O)C=C[C@H]2[C@@H]3CCC4=CC(=O)CC[C@@H]4[C@H]3CC[C@@]21CC` [Gestodene]: the relative cell viability was 0.906 ± 0.19.

`NCC(=O)O.[C-]#[O+].[C-]#[O+].[C-]#[O+].[Cl][Ru]`: the relative cell viability is 1.12 ± 0.15.

For `Cc1cc(C(=O)CN2CCCC2)c(C)n1-c1ccc(F)cc1`, the relative cell viability was 0.959 ± 0.085.

For `C[C@@]12N[C@@H](Cc3ccccc31)c1ccccc12` [(-)-MK 801 Maleate], the relative cell viability came to 1.22 ± 0.21.

With `CC(=O)OC12COC1CC(O)C1(C)C(=O)C(O)C3=C(C)C(O)CC(O)(C(OC(=O)c4ccccc4)C21)C3(C)C` (stereo not given) [10-Deacetylbaccatin-III], the relative cell viability amounted to 0.849 ± 0.011.

For `O=S(=O)(F)Cc1ccccc1`, the relative cell viability stood at 0.716 ± 0.51.

With `NC(=O)CN1CCCC1=O` [Piracetam], the relative cell viability was 1.23 ± 0.088.

Turning to `O=P1(NCCCl)OCCCN1CCCl` (stereo not given) [Ifosfamide], the relative cell viability amounted to 1.22 ± 0.034.

Turning to `O=C1CCC[C@@H]2[C@H]3CCCN4CCC[C@@H](CN12)[C@@H]34` [(+)-Matrine], the relative cell viability is 1.07 ± 0.035.

Turning to `Cc1cccc(C)c1NC1=NCCCS1` [Xylazine HCl], the relative cell viability worked out at 1.14 ± 0.024.

`O=C(Oc1ccc([N+](=O)[O-])cc1)N1CCC(C(O)(c2ccc3c(c2)OCO3)c2ccc3c(c2)OCO3)CC1`: the relative cell viability turned out to be 0.827 ± 0.12.

Take `Cc1cc(SCc2sc(-c3ccc(C(F)(F)F)c(F)c3)nc2C)ccc1OCC(=O)O`: the relative cell viability was 1.14 ± 0.071.

Consider `CC(C)(C)[C@]1(O)CC2OC(=O)CC23C(=O)OC2OC(=O)[C@H](O)C231` (stereo not given in full) [Bilobalide], for which the relative cell viability worked out at 1.14 ± 0.047.

On to `O=C(O[C@H]1C[N+]2(CCCOc3ccccc3)CCC1CC2)C(O)(c1cccs1)c1cccs1` [Aclidinium Bromide], for which the relative cell viability is 1.08 ± 0.13.

As for `C[C@@H]1O[C@@H](O[C@H]2C[C@@H](O)[C@]3(CO)[C@H]4[C@H](O)C[C@]5(C)[C@@H](C6=CC(=O)OC6)CC[C@]5(O)[C@@H]4CC[C@]3(O)C2)[C@H](O)[C@H](O)[C@H]1O` [Ouabain], the relative cell viability came to 0.813 ± 0.021.

Consider `NCC(O)c1ccc(O)cc1` (racemic) [(+,-)-Octopamine HCl], for which the relative cell viability was 0.697 ± 0.56.

In the case of `C[C@]12CC[C@H](O)C[C@@H]1CC[C@@H]1[C@@H]2CC[C@]2(C)C(=O)CC[C@@H]12` [Epiandrosterone], the relative cell viability amounted to 1.22 ± 0.18.

With `C[N+]1(C)[C@@H]2C[C@@H](OC(=O)[C@H](CO)c3ccccc3)C[C@H]1[C@@H]1O[C@@H]12` [Methscopolamine], the relative cell viability came out at 0.995 ± 0.097.

On to `CN(C)C(=O)Oc1cc(OC(=O)N(C)C)cc(C(O)CNC(C)(C)C)c1` (stereo not given) [Bambuterol HCl], for which the relative cell viability is 1.08 ± 0.077.

`CCN(C)C(=O)Oc1cccc([C@H](C)N(C)C)c1` [Rivastigmine Tartrate]: the relative cell viability was found to be 1.12 ± 0.097.

In the case of `CCC1(c2ccc(N)cc2)CCC(=O)NC1=O` (stereo not given) [Aminoglutethimide], the relative cell viability came out at 1.06 ± 0.13.

Consider `C[C@]12N[C@H](Cc3ccccc31)c1ccccc12` [MK-801 (Dizocilpine)], for which the relative cell viability was determined as 1.29 ± 0.44.

With `C[C@](O)(COc1ccc(C#N)cc1)C(=O)Nc1ccc(C#N)c(C(F)(F)F)c1`, the relative cell viability was found to be 1.13 ± 0.095.

As to `CC(=O)Nc1ccc(OC[C@](C)(O)C(=O)Nc2ccc([N+](=O)[O-])c(C(F)(F)F)c2)cc1` [Andarine], the relative cell viability was 1.26 ± 0.14.

Consider `COC(=O)C1=CCCN(C)C1` [Arecoline], for which the relative cell viability stood at 1.02 ± 0.13.

As for `CNCC(=O)c1ccc(O)c(O)c1` [Adrenalone HCl], the relative cell viability came out at 0.976 ± 0.018.

`CN1C2CC(O)CC1C1OC12` (stereo not given) [Scopine]: the relative cell viability amounted to 0.887 ± 0.11.

Regarding `CC(C)N(CCNC(=O)CN1CCCC1=O)C(C)C` [Pramiracetam], the relative cell viability was 1.03 ± 0.092.

In the case of `Cc1c(N)nc(C(CC(N)=O)NCC(N)C(N)=O)nc1C(=O)NC(C(=O)NC(C)C(O)C(C)C(=O)NC(C(=O)NCCc1nc(-c2nc(C(=O)NCCC[S+](C)C)cs2)cs1)C(C)O)C(O[C@@H]1O[C@@H](CO)[C@@H](O)[C@H](O)[C@@H]1O[C@H]1O[C@H](CO)[C@@H](O)[C@H](OC(N)=O)[C@@H]1O)c1cnc[nH]1` (stereo not given in full) [Bleomycin Sulfate], the relative cell viability amounted to 1.07 ± 0.12.

For `C[C@]12CC[C@H]3[C@@H](CC[C@@]45O[C@@H]4C(O)=C(C#N)C[C@]35C)[C@@H]1CC[C@@H]2O` [Trilostane], the relative cell viability was determined as 1.17 ± 0.29.
